# From PubChem BioAssay AID588855 (National Center for Advancing Translational Sciences (NCATS), 2011)
# Among all 410,000 compounds or so, about 5,000 (1.2%) were called active. Inconclusive means that the source gave no clear call. Such entries were picked first, then a sample of the others. Calls come from the whole dose curve; as a rule, active = well fitted inhibition curve with a large enough effect; inconclusive = small, poorly fitted or top-dose-only effect; inactive = no such curve, though single readings can be large or run the other way. Potencies beside an inconclusive call are fits to weak or partial responses and may not hold up.
# Test: qHTS for Inhibitors of TGF-b; note: nearly all actives have a fitted effect of over 65% in size
# Details: HepG2 CAGA-GFP TGF-b/SMAD3 reporter, GFP fluorescence, 18 h, TGF-beta stimulated, 500 pg/mL final; series mostly up to 46.1 µM
# Outline: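 Per well, imaged GFP fluorescence of HEPG2 CAGA-GFP cells gives the signal; cells get compound, then TGF-beta (500 pg/mL final), 18 h at 37 degrees C; %Activity versus -TGF-beta and +DMSO controls.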
# Potency is the fitted concentration of half-maximal effect; tags give direction and shape of the fitted curve.
row,SMILES,Potency
1,COc1ccc(CNC(=O)CCCN2C(=O)CSc3c2c(C)nn3-c2ccccc2)c(OC)c1,"inconclusive: 20 µM [inhibitor, partial curve, poor fit]"
2,OC(COc1ccc2c(c1)OCO2)CN1CCN(c2ccccc2)CC1 (centres undefined),inactive
3,O=C1C(=Cc2cccc(F)c2)Cc2ccccc21,"inconclusive: 11.2 µM [inhibitor, single point]"
4,Cc1c(NS(=O)(=O)c2ccc3c(c2)n(C)c(=O)n3C)c(=O)n(-c2ccccc2)n1C,"inconclusive: 11.2 µM [inhibitor, partial curve]"
5,Cc1cccc(N2CCN(C(=O)c3ccc(CS(=O)c4cccc(Cl)c4)o3)CC2)c1C (centres undefined),"inconclusive: 3.55 µM [inhibitor, full curve]"
6,CC[C@]12c3[nH]c4ccc(Cl)cc4c3CCN1C(=O)[C@@H](CC(=O)NC/C=C(\C)CCC=C(C)C)C[C@@H]2C(=O)N1CCN(C(=O)c2ccco2)CC1,"inconclusive: 28.2 µM [inhibitor, single point]"
7,CN1/C(=C\C(=O)Nc2ccc(Cl)cc2)C(C)(C)c2ccccc21,"inconclusive: 31.6 µM [inhibitor, single point]"
8,CCOC1=C2[C@@H](CN(S(=O)(=O)c3ccc(C)cc3)[C@H]2c2ccccc2Cl)[C@H]2C(=O)N(C(C)(C)C)C(=O)[C@H]2C1,"inconclusive: 10 µM [inhibitor, partial curve, poor fit]"
9,Nc1cccc(/C=C/c2ccnc3ccccc23)c1,inactive
10,O=C(CSc1nc2ccccc2o1)NC(=O)NCc1ccccc1,"inconclusive: 1.41 µM [inhibitor, partial curve]"
11,Cc1ccccc1C(=O)NCCc1nnc(SCC(=O)Nc2nc(-c3ccccc3)cs2)n1C,"inconclusive: 20 µM [inhibitor, single point]"
12,CCO[C@H]1OC(C(=O)NCc2ccccc2)=C[C@@H](C2CCCCC2)[C@@H]1CCCO,"inconclusive: 35.5 µM [inhibitor, single point]"
13,C/C(=N\NC(=O)C1COc2ccccc2O1)c1ccc(C)o1 (centres undefined),inactive
14,N#C/C(=C\c1ccc(O)cc1)C(=O)NCc1cccc(Cl)c1,"inconclusive: 35.5 µM [inhibitor, single point]"
15,Cc1cc(C(=O)CN2C(=O)C(=O)N(Cc3ccco3)C2=O)c(C)n1CCc1ccccc1,"inconclusive: 7.08 µM [inhibitor, partial curve]"
16,CCOc1cccc(N)c1,inactive
17,Cn1c(Cc2cccc3ccccc23)nnc1SCC(=O)N1CCN(c2ccccc2)CC1,"inconclusive: 15.8 µM [inhibitor, single point]"
18,O=c1n(Cc2cccc(F)c2)c2ccccc2c2nc(-c3ccccc3)nn12,inactive
19,S=C(Nc1ccccc1)Nc1ccc(OCc2ccccc2)cc1,"inconclusive: 12.6 µM [inhibitor, partial curve]"
20,COc1cccc(OC)c1NC(=O)CN(C)S(=O)(=O)c1ccc2c(c1)OCCO2,inactive
21,COc1ccc(C(=O)COC(=O)/C=C/c2ccc(S(=O)(=O)Nc3cccc(S(N)(=O)=O)c3)cc2)cc1,"inconclusive: 17.8 µM [inhibitor, single point]"
22,CCOc1cc(C(=S)N2CCOCC2)ccc1OC(=O)/C=C/c1ccc(OC)c(OC)c1,"inconclusive: 5.62 µM [inhibitor, single point]"

row,SMILES,Potency
1,CCOc1ccc(CCNC(=O)CSc2n[nH]c(-c3ccccc3)n2)cc1OCC,inactive
2,CCCCOc1ccc(C(C)NC(=O)c2cccc(Nc3nc4ccccc4n4nnnc34)c2)cc1 (centres undefined),"inconclusive: 14.1 µM [inhibitor, partial curve, poor fit]"
3,CCN1C(=O)[C@H]2[C@@H](c3ccc(Cl)cc3)N3C(=O)CN(CC4CC4)C(=O)[C@@]3(C)[C@H]2C1=O,"inconclusive: 3.98 µM [inhibitor, single point]"
4,COc1ccc(C(=O)Nc2ccc(OCC(F)(F)C(F)F)c(C(F)(F)F)c2)cc1OC,"inconclusive: 35.5 µM [inhibitor, single point]"
5,Cc1c(C2(O)CCCCC2)[nH]c2ccc(C#N)cc12,"inconclusive: 35.5 µM [inhibitor, single point]"
6,O=C(Nc1cccn(Cc2c(F)cccc2Cl)c1=O)NC1CCCCC1,"inconclusive: 35.5 µM [inhibitor, single point]"
7,Oc1ccc2[nH]cnc2c1CN1CCCCC1,"inconclusive: 1.26 µM [inhibitor, partial curve]"
8,COc1c(Cl)cc(C(=O)Nc2ccccc2-c2ccccc2)cc1Cl,inactive
9,CC(C)(C)c1ccc(C(=O)NCC(=O)NNC(=O)c2ccccc2O)cc1,"inconclusive: 17.8 µM [inhibitor, single point]"
10,CC1=Nc2ccccc2/C1=C\c1sc(Nc2ccc(C)cc2)nc1O,active: 11.2 µM
11,Cc1ccc(SCC(=O)Nc2cc([N+](=O)[O-])ccc2O)cc1,active: 17.8 µM
12,Cc1cccc(C)c1NC(=O)CN(Cc1ccccc1)Cc1ccccc1,"inconclusive: 11.2 µM [inhibitor, partial curve, poor fit]"
13,O=C(Cn1cc([N+](=O)[O-])ccc1=O)N1CCc2ccccc21,inactive
14,CCNS(=O)(=O)c1ccc(CCC(=O)N2CCN(c3cc(Cl)ccc3C)CC2)cc1,"inconclusive: 12.6 µM [inhibitor, single point]"
15,COc1ccc(NC(=O)CCCSc2nc(-c3ccco3)cc(C(F)(F)F)n2)c(OC)c1,"inconclusive: 35.5 µM [inhibitor, single point]"
16,COc1cc2cc(CN(CCc3cccc(C)c3)C(=S)NCCCN(C)C)c(=O)[nH]c2cc1OC,"inconclusive: 28.2 µM [inhibitor, partial curve, poor fit]"
17,Clc1cccc(-c2nnc(SC/C=C/c3ccccc3)n2Cc2ccco2)c1,"inconclusive: 35.5 µM [inhibitor, single point]"
18,Cc1ccc(SC(C)C(=O)NCc2ccncc2)cc1 (centres undefined),"inconclusive: 5.62 µM [inhibitor, full curve]"
19,Cc1ccc(C#CC[N+](C)(C)CC#Cc2ccccc2)cc1,inactive
20,COc1cccc(OCc2nc3ccccc3n2Cc2ccccc2C)c1,"inconclusive: 35.5 µM [inhibitor, single point]"
21,CCN1CCN(c2ccc(NC(=O)c3cccc(OCc4ccccc4)c3)cc2)CC1,"inconclusive: 11.2 µM [inhibitor, partial curve]"
22,Cc1cc(C)c(NS(=O)(=O)c2ccc(-c3cnc(C4CC4)o3)cc2)c(C)c1,active: 1.41 µM

row,SMILES,Potency
1,COc1ccc(Cl)cc1-c1cc(C(=O)Nc2ccc(Br)cc2)[nH]n1,"inconclusive: 35.5 µM [inhibitor, single point]"
2,O=[N+]([O-])c1cc(Cl)ccc1N1CCN(c2ccccc2O)CC1,active: 7.08 µM
3,CC1(c2ccc3ccccc3c2)NC(=O)N(CC(=O)Nc2cccc(S(=O)(=O)N3CCOCC3)c2)C1=O (centres undefined),"inconclusive: 35.5 µM [inhibitor, single point]"
4,CCCCCC(C)n1[nH]c(=O)c2c(C)cc(C)nc21 (centres undefined),"inconclusive: 35.5 µM [inhibitor, single point]"
5,CCN1CCN(C2=C(NS(=O)(=O)c3ccc(NC(C)=O)cc3)C(=O)c3ccccc3C2=O)CC1,"inconclusive: 22.4 µM [inhibitor, single point]"
6,Cc1cc(=O)[nH]c(SCC(=O)Nc2cc(S(=O)(=O)N3CCCC3)ccc2Cl)n1,inactive
7,Cc1cccc(NC(=O)c2ccc(C(=O)Nc3cccc(C)c3)nc2)c1,"inconclusive: 20 µM [inhibitor, single point]"
8,Cc1ccc(N(C(=O)c2snc(C(N)=O)c2N)C(C(=O)NCc2ccccc2)c2ccncc2)c(C)c1 (centres undefined),inactive
9,O=C(NCc1cccnc1)Nc1ccc(Br)cc1,inactive
10,Nc1nc2c(ncn2[C@@H]2O[C@H](CNCC3=Cc4cc(O)ccc4OC3)[C@@H](O)[C@H]2O)c(=O)[nH]1,"inconclusive: 4.47 µM [inhibitor, full curve, poor fit]"
11,CC(C)(C)OC(=O)N1CCN(c2ccc([N+](=O)[O-])cc2)CC1,inactive
12,COc1ccc(C(=O)Nc2ccnn2C2CCN(Cc3ccc4nonc4c3)CC2)cc1,"inconclusive: 35.5 µM [inhibitor, single point]"
13,Cc1ccc2nc(C)c(C(=O)N/N=C/c3cccc([N+](=O)[O-])c3)cc2c1,"inconclusive: 22.4 µM [inhibitor, single point]"
14,CCOC(=O)N1CCN(C(=O)c2ccc3c(c2)N(Cc2cc(C)ccc2C)C(=O)c2ccccc2S3=O)CC1 (centres undefined),"inconclusive: 1 µM [inhibitor, partial curve]"
15,CC(=O)Nc1cccc(C(=O)Nc2ccccc2C(=O)O)c1,"inconclusive: 1.12 µM [inhibitor, partial curve, poor fit]"
16,Cc1ccc(NC(=O)c2ccc(-n3cccn3)c([N+](=O)[O-])c2)cc1,inactive
17,COc1ccc(CCNC(=O)CCc2cn(Cc3ccc(C)cc3)c3ccccc23)cc1OC,"inconclusive: 2 µM [inhibitor, partial curve, poor fit]"
18,Cc1cc(C)cc(NC(=O)C(NS(=O)(=O)c2cccc3nsnc23)c2ccccc2)c1 (centres undefined),inactive
19,CN(C(=O)CSc1nc(N)c2c3c(sc2n1)CSC(C)(C)C3)c1ccccc1,"inconclusive: 25.1 µM [inhibitor, single point]"
20,Cc1ccc(C)c(N2CCN(CCCNC(=O)Cn3cccc3C(=O)c3ccccc3C)CC2)c1,"inconclusive: 15.8 µM [inhibitor, single point]"
